Laboratory results reported in PubChem BioAssay (NCI).
Where “and” joins values, the source holds several entries; their conditions need not be identical. Identical values can stand only once.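 Results reflect a 48-hour exposure of cells in 96-well plates to compound at five concentrations. GI50 = concentration required for 50% inhibition of growth. TGI denotes the concentration required for complete inhibition of growth.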

What follows are compounds tested on NCI-H322M lung (assay: NCI-60 cell line screen, 48 h).
Compound CC1=CC(O)C(C(O)(C(F)(F)F)C(F)(F)F)C(C)(C)C1 (centres undefined) has a TGI of over 10 µM. In the case of O=C(CC(c1ccccc1)C1C(=O)NC(=S)NC1=O)c1ccc([N+](=O)[O-])cc1 (centres undefined), the TGI was over 100 µM. Work on Cc1ccc(OCC2=NC3S/C(=C/c4ccc([N+](=O)[O-])o4)C(=O)N3N2)cc1 (centres undefined) yielded a TGI of 30 µM. In the case of Cc1cc(C)c2c(=O)n(CC(O)CN3CCN(CCOCCO)CC3)sc2n1 (centres undefined), the TGI was over 100 µM. Compound CCOC(=O)/C(C#N)=C1\SS/C(=C(/C#N)C(=O)OCC)S1 has a GI50 of 29.6 µM and a TGI of 82 µM. OCc1ccc(N2CCc3cc(F)ccc3C2)cc1Cl was tested, and the GI50 was 2.18 µM and the TGI was 12.2 µM. Compound C/C(=N/O)c1ccc2c(c1)/C(=N/O)c1ccccc1-2 has a GI50 of 24 µM and a TGI of 62.2 µM. For C[C@@H](NC(=O)c1ncnc(N)c1Cl)c1ncc(C(=O)Nc2cc(C(F)(F)F)c(Cl)cn2)s1, the GI50 was 21.3 µM and the TGI was 72.2 µM. COC(=O)C1(C)CC2C(C)(CCC3(C)C4=CC=C5C(=CC(=O)C(O)=C5C)C4(C)CCC23C)CC1O (centres undefined) gave a TGI of 7.6 µM. CC(=O)OCC1OC(n2c(N)c(C#N)c(C)c(C#N)c2=S)C(OC(C)=O)C(OC(C)=O)C1OC(C)=O (centres undefined) showed a TGI of over 100 µM. Work on Oc1cnc2c(O)cccc2c1 yielded a TGI of over 100 µM. Clc1ccc2ncc(-c3cccc(NC4CNC4)n3)n2c1 was tested, and the GI50 was 3.53 µM and the TGI was 35.5 µM. Work on ClCc1ccc(Cn2cnc3c(Cl)ncnc32)cc1 yielded a GI50 of 14.2 µM and a TGI of 22.9 µM. C[N+]1(CCC(=O)c2ccccc2)CCC2CCC(C2)C1 (centres undefined) gave a TGI of over 100 µM. COC(=O)n1c(C)c(C=O)c2ccc(OC)cc21 was tested, and the TGI was over 100 µM. With CC(C)CC(NP(=O)(O)OC1OC(C)C(O)C(O)C1O)C(=O)NC(Cc1c[nH]c2ccccc12)C(=O)O (centres undefined) the TGI was over 100 µM. Compound O=C(CCl)Nc1cc(Cl)c(Cl)cc1Cl has a TGI of 3.39 µM. For O=C(CO[N+](=O)[O-])OC/C=C/c1ccccc1, the TGI was over 100 µM. CC(C)CC1c2[nH]c3ccccc3c2C[C@H]2C(=O)NC(CCCCNC(=O)OC(C)(C)C)C(=O)N12 (some centres undefined) showed a TGI of over 100 µM. With Cc1cc(S(=O)(=O)NC2=NCCN2Cc2ccccc2)c(S)cc1Cl the TGI was over 100 µM. With Cc1ccc(-c2nc(N3CCNCC3)c3oc(-c4ccccc4)nc3n2)cc1 the GI50 was 1.63 µM and the TGI was 2.99 µM. CCCCCC[C@@H](C)Nc1nc2ccccc2c2occc12 gave a GI50 of 12.5 µM and a TGI of 27.7 µM. CN(C)CCn1cnc2ncccc2c1=O showed a TGI of over 100 µM. In the case of Cc1ccc(NC(=O)Nc2c(Cl)cccc2Cl)cn1, the GI50 was 34.7 µM and the TGI was over 100 µM. COc1ccc(-c2[nH]nc(N)c2-c2cc(OC)c3c(c2)OCO3)cc1 gave a GI50 of 7.75 µM and a TGI of over 100 µM. CN(C)C=NC1CCC(C(C)(C)C)CC1 (centres undefined) gave a TGI of 58.2 µM. Work on CC(=O)C1(C)CC(C#N)(C#N)C(C#N)=C1N (centres undefined) yielded a TGI of over 100 µM. Compound O=c1c2ccccc2nc(-c2ccccc2Cl)n1-c1nnc(C(F)(F)F)s1 has a GI50 of 3.54 µM and a TGI of 24.5 µM. In the case of CCCCN=C(N)c1ccc(N2CCCN(c3ccc(C(N)=NCCCC)cc3)CC2)cc1, the GI50 was 20 µM and the TGI was 90.3 µM. For COc1ccccc1-n1c(N)c2c(C)c(-c3ccccc3)[nH]c2nc1=S, the TGI was over 100 µM. OC(Cc1ccc2ccccc2n1)(C(F)(F)Cl)C(F)(F)Cl gave a TGI of over 10 µM. Compound COc1cc(C2C(C(=O)Nc3ccc([N+](=O)[O-])cc3)=C(C)NC(C)=C2C(=O)Nc2ccc([N+](=O)[O-])cc2)ccc1O has a TGI of over 54.9 µM. With COc1ccc(Cn2cc3c(c2)-c2oncc2CC3)cc1OC the GI50 was 0.196 µM and the TGI was over 50 µM. In the case of C(=Nc1cnc2ccccc2c1)c1ccc2ccccc2n1, the TGI was over 100 µM. With NC(N)=NS(=O)(=O)c1ccc(NNC(=O)c2cccc3c(=O)c4ccccc4[nH]c23)cc1 the TGI was 58.1 µM. In the case of O=C(Cc1ccc([N+](=O)[O-])c([N+](=O)[O-])c1CC(=O)C(=O)Nc1cc(Cl)ccc1Cl)C(=O)Nc1cc(Cl)ccc1Cl, the TGI was over 100 µM. For CC(NC1CCCC[C@H]1O)c1ccccc1 (some centres undefined), the TGI was over 100 µM. Cc1nc(-c2cnc(NC(C)C)n(C)c2=O)ccc1Oc1ccnc(-c2cnn(C)c2)c1 showed a GI50 of 48.3 µM and a TGI of over 100 µM. CCc1[nH]c(=O)c2oc3cc4ccccc4cc3c2c1C(=O)O showed a TGI of over 10 µM. For CCOC(=O)c1nc2ccc(C(F)(F)F)cc2nc1Nc1ccc(F)cc1, the TGI was over 100 µM. Compound Oc1cc(CN2CCOCCOCCOCCOCC2)c(O)cc1CN1CCOCCOCCOCCOCC1 has a TGI of over 100 µM. With CCN(CC)CCC1(C2CCCCC2)CCC(=O)NC1=O (centres undefined) the TGI was over 100 µM. For CCCCCCCCCCCCCCCCc1c(C(=O)OC)nc(NN)[nH]c1=O, the TGI was over 50 µM. For CCN(CC)c1ccc2nc3c4ccccc4c(=O)cc-3n(-c3ccccc3)c2c1, the GI50 was 1.57 µM and the TGI was 4.06 µM. With Cc1cc(S(=O)(=O)Nc2n[nH]c(Nc3ccc4ccccc4c3)n2)c(S)cc1Cl the TGI was over 100 µM. For Cc1cc(C)c2c(c1)CC1(Cc3ccc(C)c(C)c3C1=O)C2=O (centres undefined), the TGI was over 100 µM. In the case of CC(=O)OC(C)(C)/C=C/C(=O)[C@](C)(O)[C@H]1[C@H](O)C[C@@]2(C)[C@@H]3CC=C4[C@@H](C=C(O)C(=O)C4(C)C)[C@]3(C)C(=O)C[C@]12C, the TGI was 7.57 µM and 5.65 µM and 6.49 µM. With COc1cc(C2c3cc4c(cc3[C@@H](Nc3ccc(Oc5ccccc5)cc3)C3COC(=O)[C@H]23)OCO4)cc(OC)c1O (some centres undefined) the TGI was over 100 µM. With CCc1cc2c(c3c1CCCC3)CC1(Cc3ccc(C(=O)OC)cc3C1)C2 (centres undefined) the TGI was over 100 µM. COc1ccccc1-n1c(NN)nc2ccc(Br)cc2c1=O showed a TGI of over 100 µM. For CCOc1ccc(/C=C(\Cl)c2ccc(OC)cc2)cc1, the TGI was over 100 µM. For Cc1n[n+]([O-])c(C)cc1[N+](=O)[O-], the TGI was 30.7 µM. N#C/C(=C\c1cc(O)ccc1O)C(N)=O showed a TGI of over 100 µM. With O=C(Cc1csc2nc(-c3ccc(Cl)cc3)cn12)N/N=C/c1ccccc1O the GI50 was 1.56 µM and the TGI was 59.1 µM. CC1=C(C(=O)NCc2ccccc2)C(c2ccccc2C)C(C(=O)NCc2ccccc2)=C(C)N1 was tested, and the TGI was 99.5 µM. In the case of CSc1nn(C)cc2nc(C)nc1-2, the TGI was over 100 µM. With Cc1nc(N)c(-c2ccccc2)s1 the TGI was over 100 µM. C[C@H](CS)C(=O)N1c2ccccc2C[C@H]1C(=O)O showed a TGI of over 100 µM. C/C(=N\NC(=S)NC(CCC(=O)O)C(=O)O)c1cnccn1 (centres undefined) was tested, and the TGI was over 100 µM. For O=C(c1ccccc1)c1ccc2c(c1)nc1n2C(c2c(F)cccc2F)SC1 (centres undefined), the TGI was over 100 µM. In the case of Cc1ccc(NC(=O)CSc2nnc(Cc3ccccc3)o2)cc1, the TGI was over 100 µM. Work on CCCCOCOc1ccccc1P1(=O)COc2ccccc2OC1 yielded a TGI of over 100 µM. In the case of Clc1ccc(Nc2nc(Nc3ccccc3)nc(Nc3ccc(-c4cc(-c5ccc(Cl)cc5)on4)cc3)n2)cc1, the GI50 was 31.5 µM and the TGI was over 100 µM. CCCCCCCCCCSC(=O)NC was tested, and the TGI was over 100 µM. Work on O=C(Nc1ccc(-n2ccc3c(NC(=O)c4ccccc4)nccc32)cc1)Nc1cccc(C(F)(F)F)c1 yielded a GI50 of 11.6 µM and a TGI of 30.9 µM. In the case of C#CCNC(=O)NCCCCC(NC(C)=O)C(=O)NCc1ccccc1 (centres undefined), the TGI was over 100 µM. Cc1ccc(Cl)cc1NC(=O)c1cc2ccccc2cc1O showed a GI50 of 0.323 µM and a TGI of 3.19 µM. COc1cccc(C2=C(c3cn(C)c4cc(F)ccc34)C(=O)NC2=O)c1 was tested, and the GI50 was over 25 µM and the TGI was over 25 µM. Work on Nc1cc(S(=O)(=O)O)cc2ccc(S(=O)(=O)O)cc12 yielded a TGI of over 100 µM. CC(=O)[CH-]C(=O)c1ccccc1.CC(=O)[CH-]C(=O)c1ccccc1.CC(C)CCC[C@H](C)C1CCC2[C@@H]3CC=C4C[C@@H]([O-])CC[C@]4(C)C3CC[C@@]21C.CC(C)CCC[C@H](C)C1CCC2[C@@H]3CC=C4C[C@@H]([O-])CC[C@]4(C)C3CC[C@@]21C.Cl.[Ti+4] (some centres undefined) gave a GI50 of over 25 µM and a TGI of over 25 µM. O=C1/C(=C/c2[nH]ncc2-c2ccc(Cl)cc2)C(=O)N(c2ccccc2)C1c1ccccc1 (centres undefined) was tested, and the TGI was over 100 µM. For O=c1cc(NNc2ccccc2F)[nH]c(=O)[nH]1, the TGI was over 100 µM. For CCN(CC)c1ccc2cc(C(=O)NCc3ccccc3)c(=N)oc2c1, the TGI was over 100 µM. With COc1cccc2nc3ccccc3nc12 the TGI was over 100 µM. Work on C[C@@H]1O[C@]2(O)[C@@H]3CCCN3S(=O)(=O)CCN2C1=O yielded a TGI of over 100 µM. CC1=C[C@@H](C)C[C@]2(C)CC[C@H](O2)[C@]23CC[C@](CO)(C[C@H](O2)[C@@H]2O[C@@](C)(CC2=O)[C@@H](O)[C@H]2CC[C@@]4(CCC[C@@H](O4)[C@H](C)C(=O)O[C@H]4C[C@H]([C@]5(O)OCC[C@H](C)[C@@H]5O)O[C@H]4C=C1)O2)O3 was tested, and the TGI was over 10 µM. Compound CCCCC(/C=C\COC1CCCCO1)=C/C(=O)OCC (centres undefined) has a TGI of over 100 µM. CCOC(=O)c1sc2c(c1O)c(=O)n(-c1ccccc1)c(=S)n2-c1ccccc1 was tested, and the TGI was over 100 µM. With COc1cc(C2c3[nH]c4ccccc4c3[C@@H](Nc3ccc(C#N)cc3)[C@H]3COC(=O)N23)cc(OC)c1O (some centres undefined) the TGI was over 4.77 µM. In the case of O=C(COc1ccc(OCC(=O)N2C(=O)CN(c3ccccc3)C2=S)cc1)N1C(=O)CN(c2ccccc2)C1=S, the GI50 was over 25 µM and the TGI was over 100 µM. O=C1C2c3[nH]c4ccccc4c3C3CCCCCC3C2C(=O)N1c1ccccc1 (centres undefined) was tested, and the TGI was over 100 µM. In the case of Cc1cc2ccc(OC(=O)c3ccc(N=C(N)N)cc3)cc2oc1=O, the TGI was over 100 µM. With CCO/C(O)=C(/C(=N)N1CCCC1)C(=O)Nc1cccc(Cl)c1 the TGI was over 100 µM. In the case of CCOC(=O)c1cnc2c(ccc3[nH]cccc32)c1=O, the TGI was over 100 µM. Nc1nnnc2nc[nH]c12 was tested, and the GI50 was 0.544 µM and the TGI was over 39.3 µM. NC1=NC(=O)/C(=C/c2ccc3ncccc3c2)S1 showed a GI50 of over 25 µM and a TGI of over 25 µM. O=C1NC(=S)NC(=O)C1=Cc1ccc(-c2ccccc2)cc1 gave a TGI of over 100 µM. CCCCCCSCC/C(C)=N\OC gave a TGI of over 100 µM. Compound CC(C)N(C(=O)C12C3C4C1C1C2C3C41I)C(C)C (centres undefined) has a TGI of over 100 µM. In the case of C[C@@H]1OC2(O)[C@H]3CCCN3S(=O)(=O)CCN2C1=O (some centres undefined), the TGI was over 100 µM. Work on NS(=O)(=O)c1nnc(NC(=O)c2cccc([N+](=O)[O-])c2)s1 yielded a TGI of over 100 µM. For CN1CCN(c2ccc(NC(=O)c3cncnc3Nc3ccc(OCc4cccc(F)c4)c(Cl)c3)cc2)CC1, the GI50 was 2.85 µM and the TGI was over 50 µM. Work on COc1cc(C2c3cc4c(cc3OC(NCCc3ccccc3)C2C)OCO4)cc(OC)c1OC (centres undefined) yielded a TGI of over 100 µM. Work on COc1ccccc1/C=C/C1=C(C)CCC(c2ccccc2OC)C1C (centres undefined) yielded a GI50 of 0.261 µM and a TGI of over 100 µM. Compound COC1CC(C)([N+](=O)[O-])C(O)C(C)O1 (centres undefined) has a TGI of over 100 µM. In the case of COc1cc(/C=C/c2ccc(Br)cc2)cc(OC)c1OC, the TGI was 71.9 µM. Nc1cc(C(F)(F)F)c(-c2cc(N3CCOCC3)nc(N3CCOCC3)n2)cn1 was tested, and the GI50 was 1.13 µM and 2.01 µM. N#Cc1ccccc1C#C/C=C\C#Cc1ccccc1N showed a GI50 of 11.9 µM and a TGI of over 100 µM. With O=C(/C=C1\N=C(c2ccccc2)N(c2nc3c(Cl)cc(Cl)cc3s2)C1=O)/C=C/c1ccccc1 the TGI was over 100 µM. With NC(Cc1c[nH]c2ccc(F)cc12)C(=O)O (centres undefined) the GI50 was 606 µM and the TGI was 2370 µM. For O=c1ccc(=O)n(-c2ccccc2)[nH]1, the TGI was over 100 µM.
